Assay results: a collection of fitness landscapes (doi:10.1126/science.1257360)
The other results are listed elsewhere or left out.

B1: PhoQ; a variant is named by its letters at X, in order, P23837 (parent)
chain: MKKLLRLFFPLSLRVRFLLATAAVVLVLSLAYGMVALIGYSVSFDKTTFRLLRGESNLFYTLAKWENNKLHVELPENIDKQSPTMTLIYDENGQLLWAQRDVPWLMKMIQPDWLKSNGFHEIEADVNDTSLLLSGDHSIQQQLQEVREDDDDAEMTHSVAVNVYPATSRMPKLTIVVVDTIPVELKSSYMVWSWFIYVLSANLLLVIPLLWVAAWWSLRPIEALAKEVRELEEHNRELLNPATTRELTSLVRNLNRLLKSERERYDKYRTTLTDLTHSLKTPLXXLQXXLRSLRSEKMSVSDAEPVMLEQISRISQQIGYYLHRASMRGGTLLSRELHPVAPLLDNLTSALNKVYQRKGVNISLDISPEISFVGEQNDFVEVMGNVLDNACKYCLEFVEISARQTDEHLYIVVEDDGPGIPLSKREVIFDRGQRVDTLRPGQGVGLAVAREITEQYEGKIVAGESMLGGARMEVIFGRQHSAPKDE

Variants of: B1
Assay: enrichment ratio after two sorts for PhoP signalling (ratio (wild type AVST 3.29)); higher = more functional
Conditions: with PhoP (E. coli)

Variant | enrichment ratio
HECC | 7.31
ECDA | ≤ 0.25
YEIR | ≤ 0.25
MLVM | ≤ 0.25
PHHD | ≤ 0.25
IDDP | ≤ 0.25
VPYF | ≤ 0.25
VLFE | ≤ 0.25
TQDN | ≤ 0.25
CSFN | ≤ 0.25
FWWT | ≤ 0.25
INNE | ≤ 0.25
AYPD | ≤ 0.25
HAFA | ≤ 0.25
HLNP | ≤ 0.25
IACV | 0.419
HWQL | ≤ 0.25
DAGR | ≤ 0.25
HLQL | ≤ 0.25
SHWC | ≤ 0.25
TVKS | ≤ 0.25
ATYL | ≤ 0.25
AAKA | ≤ 0.25
FNYY | ≤ 0.25

Variant | enrichment ratio
TMQY | 0.38
TCES | ≤ 0.25
PDHR | ≤ 0.25
GFDK | ≤ 0.25
HEPF | ≤ 0.25
REIV | ≤ 0.25
FTSN | ≤ 0.25
THPE | ≤ 0.25
ELFK | ≤ 0.25
SGTL | 7.51
WMPN | ≤ 0.25
MKKH | ≤ 0.25
SSKI | ≤ 0.25
WLAY | ≤ 0.25
VHGW | ≤ 0.25
CRFL | ≤ 0.25
PSNF | ≤ 0.25
RTIG | ≤ 0.25
QHLW | ≤ 0.25
MIYF | 24.3
QVQG | ≤ 0.25
LLIM | ≤ 0.25
KRGL | ≤ 0.25
APYD | ≤ 0.25

Variant | enrichment ratio
THKQ | ≤ 0.25
TFEY | ≤ 0.25
VRVC | ≤ 0.25
NRCH | ≤ 0.25
LFRF | ≤ 0.25
HNDY | ≤ 0.25
FNPR | ≤ 0.25
MWCI | ≤ 0.25
GHSM | ≤ 0.25
DPCR | ≤ 0.25
RLNA | ≤ 0.25
PMER | ≤ 0.25
MIAK | ≤ 0.25
QGGM | 4.35
MNSI | 5.63
QRKL | ≤ 0.25
TQCW | 0.964
YMGR | ≤ 0.25
WPIW | ≤ 0.25
KEIE | ≤ 0.25
IYIV | ≤ 0.25
KFPC | ≤ 0.25
VNPL | ≤ 0.25
VKMF | ≤ 0.25

Variant | enrichment ratio
RYGQ | ≤ 0.25
ESAC | ≤ 0.25
NKWP | ≤ 0.25
GEVV | 17.2
HPQA | ≤ 0.25
FFND | ≤ 0.25
FKIH | ≤ 0.25
KCYT | ≤ 0.25
YQFW | ≤ 0.25
WRLE | ≤ 0.25
PRYF | ≤ 0.25
KSTQ | ≤ 0.25
NSRH | ≤ 0.25
GRYR | ≤ 0.25
SIPI | 8.91
MHCQ | ≤ 0.25
PQGK | ≤ 0.25
HWRF | ≤ 0.25
AGFK | ≤ 0.25
WRHR | ≤ 0.25
INHF | ≤ 0.25
PQWI | ≤ 0.25
GKWM | ≤ 0.25
PCFP | ≤ 0.25

Variant | enrichment ratio
ALNH | ≤ 0.25
REET | ≤ 0.25
EYWC | ≤ 0.25
GWHR | ≤ 0.25
SRWT | ≤ 0.25
MKMW | ≤ 0.25
FRSN | ≤ 0.25
YWNA | ≤ 0.25
LHHS | ≤ 0.25
FNPM | ≤ 0.25
QMCI | ≤ 0.25
YMWD | ≤ 0.25
NMRK | ≤ 0.25
FDDW | ≤ 0.25
HKGV | ≤ 0.25
NAPC | ≤ 0.25
QDIE | ≤ 0.25
WCRT | ≤ 0.25
VKIH | ≤ 0.25
LTAS | ≤ 0.25
FARW | ≤ 0.25
KTID | ≤ 0.25
GLCG | 9.3
VLSK | ≤ 0.25

Variant | enrichment ratio
TPMQ | ≤ 0.25
DPYY | ≤ 0.25
SEWK | ≤ 0.25
NIPG | ≤ 0.25
NYII | ≤ 0.25
SQGR | ≤ 0.25
HTLD | ≤ 0.25
HWFF | ≤ 0.25
GMEL | ≤ 0.25
GRNC | ≤ 0.25
EHYG | ≤ 0.25
TYAR | ≤ 0.25
TDAN | ≤ 0.25
WRYV | ≤ 0.25
PREV | ≤ 0.25
FWMI | ≤ 0.25
LFNP | ≤ 0.25
EGMV | ≤ 0.25
VRHE | ≤ 0.25
TCCR | 13.1
NACR | ≤ 0.25
YTYP | ≤ 0.25
TPTW | ≤ 0.25
AYHF | ≤ 0.25

Variant | enrichment ratio
DECQ | ≤ 0.25
AVQG | ≤ 0.25
PMLL | ≤ 0.25
AEDQ | ≤ 0.25
KVYK | ≤ 0.25
VYIM | ≤ 0.25
EMDP | ≤ 0.25
FSSY | 0.259
LKGQ | ≤ 0.25
RAAD | ≤ 0.25
FWLV | ≤ 0.25
NGWW | ≤ 0.25
VGFF | ≤ 0.25
IEMW | ≤ 0.25
LSLR | ≤ 0.25
NEFM | ≤ 0.25
FHLA | ≤ 0.25
IAKS | ≤ 0.25
AWNA | ≤ 0.25
WYQS | ≤ 0.25
TTTC | 5.52
TGFL | 1.48
IYTA | ≤ 0.25
RELT | ≤ 0.25

Variant | enrichment ratio
NQPW | ≤ 0.25
WKQY | ≤ 0.25
WTSQ | ≤ 0.25
DDCI | ≤ 0.25
SNHK | ≤ 0.25
TNKP | ≤ 0.25
GWSD | ≤ 0.25
FTHF | ≤ 0.25
FPAT | ≤ 0.25
PAKF | ≤ 0.25
YDGS | ≤ 0.25
NMMC | ≤ 0.25
PHAS | ≤ 0.25
NSER | ≤ 0.25
DKVQ | ≤ 0.25
FVIS | ≤ 0.25
MESL | 13.9
MSLT | 4.06
HKSF | ≤ 0.25
RSWE | ≤ 0.25
EWIH | ≤ 0.25
FTHI | ≤ 0.25
YHLD | ≤ 0.25
QIHI | ≤ 0.25

Variant | enrichment ratio
QHTV | ≤ 0.25
AMWI | ≤ 0.25
ESSP | ≤ 0.25
SPPN | ≤ 0.25
DRLE | ≤ 0.25
MTSH | 0.592
SQIY | 7.92
SGPN | ≤ 0.25
RVTD | ≤ 0.25
ATAG | ≤ 0.25
MSIC | ≤ 0.25
PVWC | ≤ 0.25
DNFH | ≤ 0.25
PFMM | ≤ 0.25
THFV | 1.1
HMRD | ≤ 0.25
PHHE | ≤ 0.25
LADQ | ≤ 0.25
AGWP | ≤ 0.25
ETAY | ≤ 0.25
HMPI | ≤ 0.25
NTII | ≤ 0.25
QAQL | ≤ 0.25
GEDN | ≤ 0.25

Variant | enrichment ratio
QQRS | ≤ 0.25
DNDD | ≤ 0.25
SYIR | ≤ 0.25
VVGD | ≤ 0.25
AYDG | ≤ 0.25
WRFH | ≤ 0.25
QQAT | ≤ 0.25
APGQ | ≤ 0.25
RQMS | ≤ 0.25
LHHG | ≤ 0.25
LIGN | ≤ 0.25
AHQH | ≤ 0.25
GECK | ≤ 0.25
LYCA | ≤ 0.25
YELN | 2.61
YVGR | ≤ 0.25
PQKG | ≤ 0.25
HGLK | ≤ 0.25
SQVC | 9.75
WKTL | ≤ 0.25
MDFL | ≤ 0.25
FSDM | ≤ 0.25
AHQF | ≤ 0.25
TWKD | ≤ 0.25

Variant | enrichment ratio
HAMC | ≤ 0.25
NADM | ≤ 0.25
MVAG | 12.7
KIQY | ≤ 0.25
EFTF | ≤ 0.25
RCKD | ≤ 0.25
NEYR | ≤ 0.25
DQQG | ≤ 0.25
PNGC | ≤ 0.25
IWWI | ≤ 0.25
QFKV | ≤ 0.25
LTWA | ≤ 0.25
AANH | ≤ 0.25
KESM | ≤ 0.25
FRQY | ≤ 0.25
KDAA | ≤ 0.25
TFEA | ≤ 0.25
FLWN | ≤ 0.25
ASLK | 8.78
NTGN | ≤ 0.25
DQYL | ≤ 0.25
LNFF | ≤ 0.25
YTFF | ≤ 0.25
HKMA | ≤ 0.25

Variant | enrichment ratio
YCWT | ≤ 0.25
PCMD | ≤ 0.25
RMGN | ≤ 0.25
YYEQ | ≤ 0.25
KHPP | ≤ 0.25
HIPA | ≤ 0.25
ENCL | ≤ 0.25
HSYG | ≤ 0.25
DTQL | ≤ 0.25
TITC | 12.2
KPGD | ≤ 0.25
DWYQ | ≤ 0.25
VKNN | ≤ 0.25
KKDC | ≤ 0.25
TLES | ≤ 0.25
IVLN | ≤ 0.25
LRDG | ≤ 0.25
SHQG | ≤ 0.25
FIFF | ≤ 0.25
MNFH | 0.752
LVQI | ≤ 0.25
SMRH | ≤ 0.25
VMAA | ≤ 0.25
WHSS | ≤ 0.25

Variant | enrichment ratio
YLQP | ≤ 0.25
LAMV | 1.74
WAAS | ≤ 0.25
NFYT | ≤ 0.25
LSFE | ≤ 0.25
YFTS | ≤ 0.25
DYNR | ≤ 0.25
INVI | ≤ 0.25
RHSR | ≤ 0.25
SRDT | ≤ 0.25
SGEI | ≤ 0.25
MHSH | ≤ 0.25
LAQG | ≤ 0.25
LKCS | ≤ 0.25
SISN | 10.9
KRWA | ≤ 0.25
TMTK | 6.16
PCKF | ≤ 0.25
